For test [1], the target named is T1, YejA, periplasmic solute-binding protein of the YejABEF ABC transporter from E. coli (E. coli K12) (UniProt P33913).
T1 sequence: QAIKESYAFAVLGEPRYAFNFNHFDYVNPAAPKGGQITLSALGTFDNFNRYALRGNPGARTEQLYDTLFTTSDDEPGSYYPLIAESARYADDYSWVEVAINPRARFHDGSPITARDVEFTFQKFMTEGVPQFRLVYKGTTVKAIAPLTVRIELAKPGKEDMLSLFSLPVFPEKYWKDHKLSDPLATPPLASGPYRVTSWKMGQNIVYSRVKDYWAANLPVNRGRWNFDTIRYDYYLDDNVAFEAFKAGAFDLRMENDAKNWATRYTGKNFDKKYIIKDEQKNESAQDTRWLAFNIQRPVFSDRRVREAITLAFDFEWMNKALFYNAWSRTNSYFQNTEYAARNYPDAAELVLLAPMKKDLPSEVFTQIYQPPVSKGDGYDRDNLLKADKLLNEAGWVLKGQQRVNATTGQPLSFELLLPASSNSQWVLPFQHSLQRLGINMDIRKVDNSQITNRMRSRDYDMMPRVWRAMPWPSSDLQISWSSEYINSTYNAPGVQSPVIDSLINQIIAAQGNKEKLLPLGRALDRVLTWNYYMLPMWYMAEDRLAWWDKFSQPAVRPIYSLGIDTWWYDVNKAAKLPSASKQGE
As to the kind of experiment: native MS; ESI-MS of purified YejA with co-purifying peptides in 1 M ammonium acetate, ion funnel voltage 100 eV (complexes preserved) or 200 eV (dissociation favoured).

For test [2], the target named is T1, YejA, periplasmic solute-binding protein of the YejABEF ABC transporter from E. coli (E. coli K12). In words: thermal shift assay (SYPRO orange); 0.5 mg ml^-1 (7.3 µM) YejA, 5x SYPRO orange, 25 µl, 25-96 °C in 1 °C/30 s steps; synthetic peptides added; a shift greater than 3 °C taken as significant; both purified.
Test [3] shares this target. As to the kind of experiment: SEC-MALS; YejA at 1 mg ml^-1 or 3 mg ml^-1 in 20 mM Tris-HCl pH 8.0, 50 mM NaCl on Superdex 200 10/300; both purified. (SEC sorts molecules by how far they enter the pores of the column.)

These are yes or no findings as the source states them, for the method shown. Some binding calls cover weakened binding; strength is not graded here.

VLGEPRYAFNFNHFDY: the binding entry in test [1] is “binds”.

Turning to AVLGEPRYAFNFNHFDY, the binding entry in test [1] is “binds”.

Turning to LGEPR, the binding result in test [2] is reported as “no binding (tested: 5 mg ml^−1 (8.76 mM))”.

B1: YejA, periplasmic solute-binding protein of the YejABEF ABC transporter from E. coli (protein, UniProt P33913 20-604)
chain: T1 sequence
On to B1, for which the binding entry in test [3] is listed as “binds weakly”.

Turning to AFAVLGEPRYAFNFNHFDY, in test [1], the binding result was “binds”.

In the case of YAFNFN, the binding entry in test [2] is “no binding (tested: 2.5 mg ml^−1 (3.23 mM))”.

As to VLGEPRYAFNFNH, in test [1], the binding result is “binds”.

(Values after paper PMC10924461, “Structure and ligand binding in the putative anti-microbial peptide transporter protein, YejA” (Microbiology, 2024).)
